The results in this text go back to the supplement of paper PMC12217912.

B1: TEV protease; numbered along this chain (parent)
chain: MGESLFKGPRDYNPISSSICHLTNESDGHTTSLYGIGFGPFIITNKHLFRRNNGTLVVQSLHGVFKVKDTTTLQQHLVDGRDMIIIRMPKDFPPFPQKLKFREPQREERICLVTTNFQTKSMSSMVSDTSCTFPSGDGIFWKHWIQTKDGQCGSPLVSTRDGFIVGIHSASNFTNTNNYFTSVPKNFMELLTNQEAQQWVSGWRLNADSVLWGGHKVFMVKPEEPFQPVKEATQL

The list shows a part of the results. Sequences were assembled here from the parent chain. Inactive controls read about 0.05.

This assay covers variants of B1. Nature of the assay: raw area under fraction-flipped curve 0-4 h after induction (AUC4h, not background-subtracted), DNA-recorder readout of cleavage of the substrate (dimensionless); higher = more cleavage of the substrate by the protease variant. The note with it: temperature: 34 °C; time window: 0-4 h after rhamnose induction. How it is done: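 In vivo DNA recorder in E. coli TOP10(DE3) ΔrhaA at 34 °C. Each TEVp single-site mutant (parent TEVp 0) is paired with a single-site variant of the 7-mer TEVs (canonical ENLYFQ|S). The substrate sits between flexible linkers in a Bxb1-sfGFP-TEVs-SsrA fusion, so cleavage stabilises Bxb1 and speeds flipping of a recombination array, read by NGS. The value is the raw area under the fraction-flipped curve over 0-4 h after rhamnose induction (AUC4h), with ≥20 reads per time point. It is not background-subtracted; inactive controls average about 0.047.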
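Note: Bxb1 expression induced with 0.2% (w/v) L-rhamnose at OD600 near 0.5, cultures sampled hourly, flipped fraction per protease–substrate barcode pair counted by paired-end Illumina sequencing.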

For P225G, the “area with substrate ENLYFAS” value was 0.0623, the “area with substrate ENLYFCS” value worked out at 0.0598, the “area with substrate ENLYFES” value stood at 0.071 and the “area with substrate ENLYFFS” value turned out to be 0.0528. In addition, the “area with substrate ENLYFHS” value was 0.0879, the “area with substrate ENLYFIS” value amounted to 0.0597, the “area with substrate ENLYFKS” value was found to be 0.052 and the “area with substrate ENLYFMS” value was found to be 0.0635. The “area with substrate ENLYFNS” value is 0.0547, the “area with substrate ENLYFPS” value stood at 0.0649, the “area with substrate ENLYFRS” value amounted to 0.0409 and the “area with substrate ENLYFVS” value was found to be 0.0535. In addition, the “area with substrate ENLYFWS” value was 0.0553.

For E223W, the “area with substrate ENLYFAS” value was 0.0597, the “area with substrate ENLYFCS” value stood at 0.0583, the “area with substrate ENLYFDS” value was found to be 0.0646 and the “area with substrate ENLYFES” value was 0.0469. Moreover, the “area with substrate ENLYFFS” value is 0.0743, the “area with substrate ENLYFGS” value amounted to 0.0506, the “area with substrate ENLYFIS” value was 0.0544 and the “area with substrate ENLYFKS” value is 0.0689. Besides, the “area with substrate ENLYFLS” value was found to be 0.0543, the “area with substrate ENLYFMS” value amounted to 0.0597, the “area with substrate ENLYFNS” value is 0.0648 and the “area with substrate ENLYFPS” value came to 0.059. Also, the “area with substrate ENLYFRS” value came to 0.0424, the “area with substrate ENLYFTS” value stood at 0.0535, the “area with substrate ENLYFVS” value is 0.053 and the “area with substrate ENLYFWS” value amounted to 0.0878. Moreover, the “area with substrate ENLYFYS” value stood at 0.0583.

Consider E223V, for which the “area with substrate ENLYFAS” value worked out at 0.0512, the “area with substrate ENLYFCS” value was found to be 0.0514, the “area with substrate ENLYFDS” value was determined as 0.0591 and the “area with substrate ENLYFES” value was determined as 0.0588. Also, the “area with substrate ENLYFFS” value stood at 0.0457, the “area with substrate ENLYFIS” value turned out to be 0.0693, the “area with substrate ENLYFLS” value came out at 0.066 and the “area with substrate ENLYFMS” value worked out at 0.0597. Also, the “area with substrate ENLYFNS” value is 0.066, the “area with substrate ENLYFPS” value is 0.0568, the “area with substrate ENLYFSS” value came out at 0.0233 and the “area with substrate ENLYFVS” value was determined as 0.0642. Moreover, the “area with substrate ENLYFWS” value amounted to 0.0542 and the “area with substrate ENLYFYS” value stood at 0.0535.

For the variant E223S, the “area with substrate ENLYFAS” value amounted to 0.0474, the “area with substrate ENLYFCS” value came to 0.0754, the “area with substrate ENLYFDS” value was found to be 0.0671 and the “area with substrate ENLYFFS” value was 0.0639. For the same variant, the “area with substrate ENLYFGS” value is 0.0647, the “area with substrate ENLYFIS” value was 0.0613, the “area with substrate ENLYFMS” value turned out to be 0.0563 and the “area with substrate ENLYFNS” value stood at 0.0614. Further, the “area with substrate ENLYFPS” value stood at 0.0552, the “area with substrate ENLYFRS” value was found to be 0.0668, the “area with substrate ENLYFTS” value was 0.0519 and the “area with substrate ENLYFWS” value came out at 0.0984. In addition, the “area with substrate ENLYFYS” value was found to be 0.0666.

On to T71R, for which the “area with substrate ENLYFCS” value is 0.0697, the “area with substrate ENLYFES” value came to 0.0661, the “area with substrate ENLYFFS” value was 0.0389 and the “area with substrate ENLYFIS” value turned out to be 0.0569. Moreover, the “area with substrate ENLYFKS” value is 0.0417, the “area with substrate ENLYFPS” value is 0.0614, the “area with substrate ENLYFSS” value came to 0.0804 and the “area with substrate ENLYFTS” value was determined as 0.0588. The “area with substrate ENLYFVS” value is 0.0339 and the “area with substrate ENLYFYS” value was 0.0632.

Regarding T71G, the “area with substrate ENLYFCS” value was determined as 0.0562, the “area with substrate ENLYFDS” value came out at 0.0611, the “area with substrate ENLYFES” value stood at 0.0485 and the “area with substrate ENLYFFS” value was found to be 0.0672. Besides, the “area with substrate ENLYFGS” value is 0.0628, the “area with substrate ENLYFHS” value worked out at 0.0702, the “area with substrate ENLYFIS” value amounted to 0.0621 and the “area with substrate ENLYFKS” value came to 0.0502. Moreover, the “area with substrate ENLYFLS” value amounted to 0.0614, the “area with substrate ENLYFMS” value was determined as 0.0577, the “area with substrate ENLYFNS” value is 0.0709 and the “area with substrate ENLYFPS” value turned out to be 0.0532. Further, the “area with substrate ENLYFRS” value amounted to 0.0511, the “area with substrate ENLYFTS” value stood at 0.0577, the “area with substrate ENLYFWS” value is 0.0689 and the “area with substrate ENLYFYS” value is 0.0507.
